Where “and” joins values, the source holds several entries; their conditions need not be identical. Equal entries are not always repeated. In all, about 340,000 compounds went through this assay and about 12,000 (3.5%) were called active. Inconclusive means that the source gave no clear call. Such entries were picked first, then a sample of the others. Calls come from the whole dose curve; as a rule, active = well fitted inhibition curve with a large enough effect; inconclusive = small, poorly fitted or top-dose-only effect, or another doubt; inactive = no such curve, though single readings can be large or run the other way. A potency beside an inconclusive call is a rough fit, not a confirmed value.
Experiment: qHTS Assay for Inhibitors of Hepatitis C Virus (HCV)
Conditions: Huh7.5.1 HCVcc-Cre (HCVcc is cell-culture hepatitis C virus) infection, luciferase reporter, 44 h; series mostly up to 41.8 µM
Method in brief: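 A cell-based infection assay in which seeded cells (1,000 per well) receive test compound after 4 h, are inoculated with HCVcc-Cre at approximately 0.5 moi, and are incubated 44 h before luminescence detection.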
Potency is the fitted concentration of half-maximal effect; tags give direction and shape of the fitted curve.

| SMILES | Potency |
| --- | --- |
| CCN1CCN(c2ccccc2NC(=O)C(C)Oc2ccc(C(C)=O)cc2)CC1 (centres undefined) | inconclusive: 31.6 µM [inhibitor, single point] |
| Nc1ccc(O)c2c1C(=O)c1ccccc1C2=O | active: 5.01 µM |
| Cc1ccc(C2(C)NC(=O)N(CC(=O)Nc3ccc(-c4nc5ccc(C)cc5s4)cc3)C2=O)cc1 (centres undefined) | inconclusive: 0.891 µM [inhibitor, full curve, poor fit] |
| Cc1ccc(/C=C2/CNC/C(=C/c3ccc(C)cc3)C2=O)cc1 | active: 8.91 µM |
| COc1cc(/C=C/C(=O)Nc2cccc(S(=O)(=O)N3CCOCC3)c2)ccc1OCC#N | inconclusive: 2.82 µM [inhibitor, full curve] |
| CCOc1ccc(N(CC(=O)Nc2ccccc2OCC)S(=O)(=O)c2c(C)noc2C)cc1 | active: 11.2 µM |
| Cc1ccc(C(=O)NC(=S)Nc2ccccc2N2CCCC2)cc1[N+](=O)[O-] | inconclusive: 7.08 µM [inhibitor, partial curve] |
| Cc1ccc(Cl)cc1NC(=O)c1cnn2c1NC(c1ccco1)CC2C(F)(F)F (centres undefined) | active: 25.1 µM |
| COc1cccc2c1OC1(C)CC2NC(=O)N1c1cccc(C(=O)Nc2ccc3c(c2)OCCO3)c1 (centres undefined) | inconclusive: 31.6 µM [inhibitor, single point] |
| COc1ccc(-c2ncccc2OC(=O)C23CC4CC(CC(C4)C2)C3)cc1OC | inactive |
| Cc1ccc(N2C(=O)N3[C@@H]4c5ccccc5OC[C@@H]4[C@@H](c4ccccc4)[C@@]3(C)C2=O)cc1 | inconclusive: 12.6 µM [inhibitor, partial curve] |
| CCC(/C=N/NC(=O)c1ccccc1F)CC | inactive |
| CCN1CCN(CC(=O)Nc2ccc(OC(F)(F)F)cc2)CC1 | inconclusive: 3.55 µM [inhibitor, full curve, poor fit] |
| Oc1ccc(Br)cc1C1Nc2ccccc2S1 (centres undefined) | inconclusive: 5.62 µM [inhibitor, single point] |
| CCn1c2ccccc2c2cc(NC(=O)CSc3nccc(=O)[nH]3)ccc21 | inconclusive: 11.2 µM [inhibitor, partial curve, poor fit] |
| CC(C)CC(NC(=O)C(NC(=O)OC(C)(C)C)C(C)C)C(=O)NC(CCC(=O)OCc1ccccc1)C(N)=O (centres undefined) | inactive |
| Cn1nc(C(=O)NCc2ccccn2)c2ccccc2c1=O | inconclusive: 5.62 µM [inhibitor, single point] |
| O=C(/C=C/c1ccco1)Nc1ccc(-c2nc3ccccc3[nH]2)cc1 | active: 2.82 µM |
| CCN1C(=O)[C@@H]2[C@@H](c3ccc(-c4ccc(C(C)=O)cc4)cc3)N3CCCC[C@@]3(C(=O)OC)[C@@H]2C1=O | inconclusive: 31.6 µM [inhibitor, single point] |
| CC1CCN(C(C(=O)NC2CCCCC2)c2cc3c(cc2[N+](=O)[O-])OCO3)CC1 (centres undefined) | inactive |
| C=CCc1ccc(O)c(-c2ccc(O)c(CC=C)c2)c1 | inconclusive: 31.6 µM [inhibitor, single point] |
| COc1cc([C@@H]2c3cc4c(cc3[C@H](O)[C@H]3COC(=O)[C@H]23)OCO4)cc(OC)c1OC | inconclusive: 11.2 µM [inhibitor, single point] |
| COc1ccc(Cl)cc1S(=O)(=O)N(C)CC(=O)NCc1ccc2c(c1)OCO2 | inactive |

| SMILES | Potency |
| --- | --- |
| O=C1CSC(=S)N1c1cccnc1 | inactive |
| CCN(CC)S(=O)(=O)c1ccc(C)c(NC(=O)/C=C/c2cccs2)c1 | active: 10 µM |
| O=C(O)CC(c1cccc(Cl)c1)n1cccc1 (centres undefined) | active: 11.2 µM |
| Clc1ccccc1OCCN1CCCCC1 | inactive |
| N#CC1=C(N)Oc2c(c(=O)sc3ccccc23)C1c1ccncc1 (centres undefined) | inactive |
| O=C(/C=C/c1cc([N+](=O)[O-])ccc1OC(F)F)Nc1ccc(OC(F)F)cc1 | inconclusive: 5.01 µM [inhibitor, partial curve] |
| Brc1ccc(-c2cnc3n2CCCC3)cc1 | inconclusive: 31.6 µM [inhibitor, single point] |
| CSc1ccccc1NC(=O)CN(C)CC(=O)Nc1cc(C)ccc1C | inconclusive: 11.2 µM [inhibitor, single point] |
| O=C(Nc1nc(-c2ccco2)cs1)c1ccccc1 | inactive |
| Cc1ccc(C(=O)OCC(=O)Nc2cc(C(C)(C)C)nn2-c2ccccc2)c(O)c1 | inconclusive: 1.26 µM [inhibitor, partial curve, poor fit] |
| Cc1ccc(CNC(=S)NCc2ccncc2)cc1 | inactive |
| Nc1nn(S(=O)(=O)c2cccc3nsnc23)cc1-c1ccc(Br)cc1 | active: 10 µM |
| CCOC(=O)C1CCN(C(=O)CC(NS(=O)(=O)c2ccc(OC)cc2)C(C)C)CC1 (centres undefined) | inconclusive: 5.01 µM [inhibitor, single point] |
| O=C(N/N=C/c1cccc(OCc2ccccc2)c1)c1ccc(Br)o1 | inconclusive: 5.01 µM [inhibitor, single point] |
| O=C(CNC(=O)c1ccc(Br)o1)NNC(=O)c1cccc(Cl)c1 | inconclusive: 0.794 µM [inhibitor, full curve, poor fit] |
| CCOC(=O)Cn1nc(C)c([N+](=O)[O-])c1C | inactive |
| CCOc1ccccc1OCCCOc1ccc(C)cc1Cl | inconclusive: 22.4 µM [inhibitor, single point] |
| COc1ccc(N2CCN(C(=O)CCNS(=O)(=O)c3ccc(Br)s3)CC2)cc1 | inconclusive: 31.6 µM [inhibitor, single point] |
| CC(C)(C)c1cc(NC(=O)Nc2ccccc2OC(F)(F)F)no1 | inconclusive: 12.6 µM [inhibitor, single point] |
| COc1nc(N)c(C#N)c(-c2ccc(N(C)CCC#N)cc2)c1C#N | inconclusive: 20 µM [inhibitor, partial curve, poor fit] |
| CCOC(=O)Nc1sc(C)c(C)c1C(=O)OCC | inconclusive: 35.5 µM [inhibitor, single point] |
| Cc1cccc2cc(CN(CC3CCCO3)C(=S)Nc3ccccc3)c(=O)[nH]c12 (centres undefined) | inconclusive: 1.78 µM [inhibitor, single point] |
| O=C(COC(=O)C1CCCO1)Nc1cccc(C(F)(F)F)c1 (centres undefined) | inactive |

| SMILES | Potency |
| --- | --- |
| Cn1c(N)c(C(=O)COC(=O)Cc2ccccc2)c(=O)n(C)c1=O | inactive |
| Cc1nn(-c2ccccc2)c2sc(C(=O)NCCN3CCOCC3)cc12 | active: 2.24 µM |
| C/C=C/c1ccc(OCC(=O)Nc2cc(Cl)ccc2-n2cncn2)c(OC)c1 | inconclusive: 3.16 µM [inhibitor, partial curve] |
| O=C(Nc1ccc2c(c1)OCO2)C1CC(c2ccccc2Cl)=NO1 (centres undefined) | inactive |
| CC1(C)CCC/C(=C\c2ccccc2)C1=O | inactive |
| O=C(CCCCCn1c(=S)[nH]c2cc3c(cc2c1=O)OCO3)N1CCN(C(=O)c2ccco2)CC1 | inconclusive: 25.1 µM [inhibitor, single point] |
| CCN1CCN(c2cc(C)c3cc(NC(=O)c4cccnc4Cl)ccc3n2)CC1 | inconclusive: 31.6 µM [inhibitor, partial curve, poor fit] |
| CN(C)c1cc(-c2ccc(Br)cc2)oc(=O)c1Cl | inconclusive: 10 µM [inhibitor, partial curve] |
| CCCC(=O)N1CCCC(C(=O)c2cccc(OC(C)C)c2)C1 (centres undefined) | inactive |
| CCCCn1c(NC(=O)c2ccc(Br)o2)c(C(=O)OCC)c2nc3ccccc3nc21 | inconclusive: 25.1 µM [inhibitor, single point] |
| CCOC(=O)c1[nH]c(C)c(C(=O)Nc2ccc(C)c(C)c2)c1C | inconclusive: 11.2 µM [inhibitor, partial curve] |
| CCCS(=O)(=O)c1c(S(=O)(=O)CCC)c2c(N)cccn2c1C(=O)c1ccc(Br)cc1 | inconclusive: 22.4 µM [inhibitor, single point] |
| COc1ccc(C(=O)N2CCN(CCCc3ccccc3)CC2)cc1OC | inconclusive: 10 µM [inhibitor, single point] |
| Cc1ccc(NC(=O)c2nc[nH]c2C(=O)N[C@@H](C)c2ccccc2)cc1 | inconclusive: 10 µM [inhibitor, partial curve] |
| CC(Oc1ccc(-c2ccccc2)c(F)c1)c1ccn(S(=O)(=O)c2ccc(F)cc2)n1 (centres undefined) | inconclusive: 2.51 µM [inhibitor, full curve] |
| CCc1ccc2nc(SCC(=O)N3CCCCC3)c(C#N)cc2c1 | inconclusive: 25.1 µM [inhibitor, single point] |
| COc1ccc(N2C(=O)C3CCCN3C2c2ccccc2OC)cc1 (centres undefined) | inactive |
| CC(=O)Oc1ccc2ccccc2c1C(NC(=O)Cc1ccccc1)c1ccccc1Cl (centres undefined) | inconclusive: 22.4 µM [inhibitor, single point] |
| CCc1ccccc1NC(=O)CN1CCN(C(=O)C2CCN(C(=O)/C=C/c3ccccc3)CC2)CC1 | inconclusive: 11.2 µM [inhibitor, partial curve] |
| Cc1cc(C)cc(N(CC(=O)Nc2ccc(Br)cc2)S(=O)(=O)c2c(C)[nH]c(=O)[nH]c2=O)c1 | inactive |
| CN(/N=C/c1ccc(O)cc1O)c1nc(-c2ccccc2)cc(-c2ccccc2)n1 | inconclusive: 3.55 µM [inhibitor, full curve] |
| COc1ccc(OCC(=O)N2CCN(C(=O)COc3ccc(Br)cc3)CC2)cc1 | inconclusive: 22.4 µM [inhibitor, partial curve] and inconclusive: 2 µM [inhibitor, single point] |
| Cc1ccc(NC(=O)c2ccc(-n3cncn3)c([N+](=O)[O-])c2)cc1 | inconclusive: 5.62 µM [inhibitor, single point] |

From PubChem BioAssay AID651820 (National Center for Advancing Translational Sciences (NCATS), 2012)
